Out of some 43,000 compounds screened, about 200 (0.47%) were called active. Not shown: some 12% with an inconclusive outcome. Calls come from the whole dose curve; as a rule, active = well fitted cell-killing curve with a large enough effect; inconclusive = small, poorly fitted or top-dose-only effect, or effect the other way; inactive = flat fitted curve, though single readings scatter. The list shows a part of the results.
Assay: Cell viability qHTS assay in S16 Pmp22-F2sN cells; note: nearly all actives have a fitted effect of over 65% in size
Conditions: S16 Pmp22-F2sN Schwann cells (luciferase reporters placed in the Pmp22 gene) viability, CellTiter-Glo, 24 h; series mostly up to 57.5 µM; activity change, negative = cytotoxicity: at the top concentration
How it was run: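 CellTiter-Glo counter-screen, qHTS, 1536-well. Cells: S16(c9) Pmp22-F2sN, 500-1,000/well in DMEM + 10% FBS. Cpd 23 nL pin transfer, 24 h, 37C/5% CO2. Read: luminescence, CCD imager.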
% is set by controls: 0 for no effect and ±100 for the full control effect; potency is the fitted concentration of half-maximal effect.

| Structure (SMILES) | activity change, negative = cytotoxicity | Potency |
| --- | --- | --- |
| Cc1ccc(NC(=O)c2cc3nc(-c4ccccc4)cc(-c4ccccc4)n3n2)cc1 | inactive: 1.5% | – |
| CCn1cnc2c(=O)oc3ccc(S(=O)(=O)Nc4ccc(OC)cc4)cc3c21 | inactive: -2.24% | – |
| COc1ccc(CCNC(=O)c2ccc(Cn3c(=O)c4ccccc4n(Cc4cccc(C)c4)c3=O)cc2)cc1OC | inactive: 15.1% | – |
| CCOCCCn1c(=N)c(C(=O)NC2CCCC2)cc2c(=O)n3cc(C)ccc3nc21 | inactive: 18.1% | – |
| Cc1ccc2[nH]c(=O)c(CN(C(=O)c3cccc(Cl)c3)C(C)(C)C)cc2c1 | inactive: -0.739% | – |
| Cc1ccccc1C(=O)Nc1cccc(C(=O)OCc2cc(=O)n3ccsc3n2)c1 | inactive: -4.58% | – |
| Cc1ccc(C(=O)COC(=O)C(Cc2c[nH]c3ccccc23)NC(=O)c2ccc(C(C)(C)C)cc2)cc1 (stereo not given) | inactive: 8.06% | – |
| CSc1ccc(Cn2nnc(C(=O)Nc3ccc(C)cc3Cl)c2N)cc1 | inactive: 1.29% | – |
| Cc1cc(C)cc(NC(=O)CSc2nc(=O)n(Cc3ccccn3)c3c2CCC3)c1 | inactive: -13.1% | – |
| CCOC(=O)C(C)Sc1nc(-c2ccccc2Cl)cc(-c2ccccc2)c1C#N (stereo not given) | inactive: 1.46% | – |
| CCN(c1ccccc1)S(=O)(=O)c1ccc(-c2cc(C)no2)s1 | inactive: -12.5% | – |
| CC(C)CC(=O)Nc1cc(-c2ccccc2F)nn1-c1ccccc1 | inactive: -6.41% | – |
| Cc1cccc(C)c1OCc1cc(=O)n2c3c(sc2n1)CCCC3 | inactive: 19.3% | – |
| Cc1cccc(Oc2nc3c(c(=O)n(C)c(=O)n3C)n2Cc2ccccc2)c1C | inactive: 14% | – |
| COc1ccc(-n2cc(-c3ccccc3)c3c(NC4CCCC4)ncnc32)cc1 | inactive: -17.1% | – |
| CCOc1ccc(CNC(=O)CC(C)n2nc(C)cc2C)cc1OC (stereo not given) | inactive: 3.06% | – |
| Cc1ccc2c(c1)c1c(c(=O)n(-c3ccccc3)c(=O)n1CC(=O)c1ccc(F)cc1)n2C | inactive: 0.578% | – |
| CC1=C(C(=O)Nc2ccc(C)cc2C)C(c2ccc(C(=O)O)cc2)n2nc(SCc3ccccc3)nc2N1 (stereo not given) | inactive: 2.49% | – |
| CCc1cccc(NC(=O)Cn2c(=O)n(-c3cccc(Cl)c3)c(=O)c3c2c2cc(C)ccc2n3C)c1 | inactive: 19.2% | – |
| COc1ccc(OC)c(CNC(=O)c2cnc3c(C)cccn3c2=O)c1 | inactive: 10.2% | – |
| Cc1ccc(NC(=O)c2ccc(CN3CC(=O)N4CCCCC4C3=O)cc2)cc1 (stereo not given) | inactive: 22.1% | – |
| O=C(Nc1cccc(C(F)(F)F)c1)N1CC2CCCN2c2ccccc21 (stereo not given) | inactive: -21.4% | – |
| COc1ccc(-n2nc(C(=O)Nc3ccc(Cl)cn3)c3c4ccccc4n(C)c3c2=O)cc1 | inactive: -0.33% | – |
| Cc1cccc(NC(=O)Cn2nc3c4ccccc4n(Cc4ccccc4)cc-3c2=O)c1 | inactive: 8.21% | – |

| Structure (SMILES) | activity change, negative = cytotoxicity | Potency |
| --- | --- | --- |
| COc1ccc2cc(-c3nnc(Nc4ccccc4)s3)c(=O)oc2c1 | inactive: -3.76% | – |
| CC(=O)c1cc(-c2ccc(F)cc2)n(CC(=O)NC2CCC(C)CC2)c1C (stereo not given) | inactive: -1.73% | – |
| CC(=O)c1cccc(NC(=O)Nc2nnc(N3CCCC3)s2)c1 | inactive: -16.8% | – |
| COc1cccc(CNC(=O)c2ccc3c(=O)n4nc(Nc5ccccc5)sc4nc3c2)c1 | inactive: -2.87% | – |
| CCCOc1ccc(CNC(=O)c2ccc(C)c(-n3c(C)nc4cccnc43)c2)cc1 | inactive: -2.62% | – |
| Cc1oc2ncn(C)c(=O)c2c1C(=O)NCCCN1CCCCC1C (stereo not given) | inactive: 0.594% | – |
| Cc1ccc(N2CCN(C(=O)c3cnn(-c4ccc(F)cc4F)c3C3CCN(C(=O)OC(C)(C)C)CC3)CC2)c(C)c1 | inactive: -10.1% | – |
| CN(Cc1ccccc1)S(=O)(=O)c1ccc2[nH]c3c(c2c1)CCCCC3 | inactive: -7.58% | – |
| CCN1CCN(C(c2ccc(C)cc2)c2c(O)cc(C)n(Cc3ccco3)c2=O)CC1 (stereo not given) | inactive: -2.05% | – |
| COc1ccc(-n2nc(C(=O)O)c(=O)n(C)c2=O)cc1 | inactive: -0.172% | – |
| COc1cc(OC)c(N(C)C(=O)c2cn(C3CCCC3)c(=O)c3c2c2ccccc2n3C)cc1Cl | inactive: -29.9% | – |
| Cc1ccccc1C(=O)OCc1cc(=O)n2nc(C(C)C)sc2n1 | inactive: 3.26% | – |
| Cc1ccc(Nc2nc3ccccc3c3nnc(C)n23)c(C)c1 | inactive: 6.25% | – |
| COc1ccc(-c2cc3nc(C)c(CCC(=O)N4CCN(c5ccc(F)cc5)CC4)c(C)n3n2)c(OC)c1 | inactive: -3.63% | – |
| COc1ccc(NC(=O)c2c(C)oc3ccc(O)c(CN4CCN(Cc5ccccc5)CC4)c23)cc1Cl | inactive: -7.55% | – |
| CCCCN(CCCC)CCNC(=O)CN1C(=O)CSc2ccc(S(=O)(=O)N3CCOCC3)cc21 | inactive: -1.98% | – |
| COc1ccccc1OCC(=O)NC1CC(=O)N(c2ccc3c(c2)OCCO3)C1 (stereo not given) | inactive: 3.48% | – |
| CC(=O)c1cccc(Nc2cc(C)nc3nc(Cc4ccccc4)nn23)c1 | inactive: 8.31% | – |
| COc1ccc(CNC(=O)c2cc(=O)[nH]c3ccc(S(=O)(=O)N4CCCC4)cc23)c(OC)c1 | inactive: 10.2% | – |
| O=C(NCCc1ccccc1)c1ccc2c(c1)N(Cc1ccccc1)C(=O)c1ccccc1S2(=O)=O | inactive: -9.69% | – |
| COc1ccc(Cl)cc1NC(=O)c1ccc2c(c1)CCN2S(C)(=O)=O | inactive: -6.05% | – |
| Cc1cc(NC(=O)CSc2nc(-c3ccccc3C)nc3c2c(=O)n(C)c(=O)n3C)no1 | inactive: 5.14% | – |
| CCOc1cc(C(=O)Nc2cccc3cccnc23)cc(OCC)c1OCC | inactive: -1.37% | – |
| CC(=O)c1cccc(NC(=O)C(CC(C)C)NS(=O)(=O)c2ccc3c(c2)CCN3C(C)=O)c1 (stereo not given) | inactive: -10.1% | – |

| Structure (SMILES) | activity change, negative = cytotoxicity | Potency |
| --- | --- | --- |
| CCOC(=O)CN(Cc1ccccc1)C(C(=O)NC1CCCCC1)c1ccc(OC)cc1 (stereo not given) | inactive: -17.1% | – |
| Cc1c(Cl)cccc1NC(=O)C1CCCN(c2ncnc3onc(C)c23)C1 (stereo not given) | inactive: 1.33% | – |
| CCOC(=O)N1CCC(NC(=O)c2cnn(-c3cccc(F)c3)c2-n2cccc2)CC1 | inactive: -0.0256% | – |
| COc1ccc(CCC(=O)NCc2nc3cccnc3n2Cc2ccc(F)cc2)cc1 | inactive: 1.51% | – |
| CC1CCN(S(=O)(=O)c2ccc3c(c2)c(=O)c(C(=O)NC(C)c2ccccc2)cn3C)CC1 (stereo not given) | inactive: -20.7% | – |
| Cc1ccc(Cl)cc1N1CCN(C(=O)c2ccc3c(c2)CCN3S(=O)(=O)c2ccccc2)CC1 | inactive: 5.63% | – |
| NS(=O)(=O)c1ccc(CCNc2ncnc3c2cnn3-c2cccc(Cl)c2)cc1 | inactive: 11.4% | – |
| O=C(NCc1ccccc1Cl)c1ccc2c(c1)N(Cc1ccccc1)C(=O)CS2 | inactive: -26.1% | – |
| Cc1ccc2c(c1)-c1c(cnc3cc(-c4ccc(F)cc4)nn13)CO2 | inactive: -0.0287% | – |
| CCc1ccc(C2=C(C)C(N3CCC(C(=O)NCc4ccccc4)CC3)=NS2(=O)=O)cc1 | inactive: 1.67% | – |
| Cc1ccc(CNC(=O)c2c(O)nc3cc(C)ccn3c2=O)cc1 | inactive: -9.08% | – |
| CC(c1ccccc1)n1cc2c(c1-c1ccccc1Br)c(=O)n(C)c(=O)n2C (stereo not given) | inactive: -8.78% | – |
| COc1cccc(NC(=O)CCc2c(C)nc3nc(CNC(=O)c4cccc(F)c4)nn3c2C)c1 | inactive: -0.645% | – |
| CCc1cc(C(=O)Nc2sc(C)c(CC)c2C#N)no1 | inactive: 3.81% | – |
| CCCCOc1cccc(C(=O)Nc2cc(NC(=O)c3ccco3)ccc2OC)c1 | inactive: -3.56% | – |
| CCc1ccc(CN2CCc3nc(N4CCN(c5ccccc5F)CC4)ncc3C2)cc1 | inactive: -23% | – |
| C#CCOc1ccc(-c2nnc(Nc3ccc(NC(C)=O)cc3)c3ccccc23)cc1 | inactive: 7.12% | – |
| COc1cccc2c1ncc1c(-c3ccc(C)cc3)nn(-c3ccc(F)cc3)c12 | inactive: 2.51% | – |
| CC(C)COc1ccc(C(=O)N2CCCCC2CCN2CCCCC2)cc1 (stereo not given) | inactive: 0.254% | – |
| COc1ccc(CCNC(=O)c2cnn(-c3cccc(C)c3)c2C2CCN(C(=O)OC(C)(C)C)CC2)cc1OC | inactive: -2.2% | – |
| CC(=O)c1ccc(NC(=O)c2noc3c2CSc2ccccc2-3)cc1 | inactive: 17% | – |
| O=C(NCCN1CCN(c2cccc(Cl)c2)CC1)Nc1ccccc1C(F)(F)F | inactive: -12.7% | – |
| Cc1ccc(CNc2nc(-c3ccco3)nn2S(=O)(=O)c2ccc3ccccc3c2)cc1 | inactive: -19.7% | – |
| O=C(CSc1ncc(-c2ccccc2)[nH]1)Nc1ccc(Cl)cc1 | inactive: 1.66% | – |

| Structure (SMILES) | activity change, negative = cytotoxicity | Potency |
| --- | --- | --- |
| CSc1ncc(C(=O)N2CCN(c3cccc(Cl)c3)CC2)c(C)n1 | inactive: -0.848% | – |
| O=C(CCCn1c(=O)c2cccn2c2cccnc21)NCc1ccccc1Br | inactive: -1.59% | – |
| O=C(CC1C(=O)N(c2ccccc2)C(=O)N1CCc1cccs1)Nc1ccc(F)cc1 (stereo not given) | inactive: -17.5% | – |
| CCOc1ccc(CCNC(=O)Cn2nnc(-c3ccccc3Cl)n2)cc1OCC | inactive: 5.72% | – |
| Cc1c(C)n(Cc2ccc(F)cc2)c2ccc(C(=O)NCc3ccco3)cc12 | inactive: -2.81% | – |
| O=C(Cn1c(=O)nc(-c2ccccc2)c2cc(Cl)ccc21)N1CCN(c2ccccc2F)CC1 | inactive: 11.6% | – |
| COc1ccc(Cl)cc1NC(=O)CN1C(=O)C(C)(C)c2cc(S(=O)(=O)N3CCCCC3)ccc21 | inactive: -1.91% | – |
| Cc1ccccc1CNC(=O)c1oc2c(c1C)-c1[nH]ncc1CC2 | inactive: 2.17% | – |
| Cc1ccc2nc(Cl)c3cc(C(=O)N4CCCCC4C)sc3c2c1 (stereo not given) | inactive: 8.3% | – |
| Cc1cn(C)c(CC(=O)NCc2ccccc2)c1C(=O)O | inactive: 3.6% | – |
| Cc1ccsc1CN(C(=O)c1oc2ccc(Br)cc2c1C)C1CCS(=O)(=O)C1 (stereo not given) | inactive: -28.5% | – |
| CCOc1ccc(C2c3c(oc4ccc(C)cc4c3=O)C(=O)N2CCCN2CCOCC2)cc1 (stereo not given) | inactive: -6.91% | – |
| CCN1c2ccccc2-c2nc(SCC(=O)NCc3ccc(Cl)cc3)ncc2S1(=O)=O | inactive: -5.34% | – |
| Cc1cccc(-n2ncc(C(=O)N3CCN(c4ccc(C)cc4C)CC3)c2C2CCN(C(=O)OC(C)(C)C)CC2)c1 | inactive: 22.7% | – |
| Cc1cc(N2CCN(C)CC2)nc2ccc(NC(=O)Nc3cccc(Cl)c3)cc12 | – | active: 25.1 µM |
| Cc1cccc(-n2ncc(C(=O)NCc3ccccn3)c2C2CCN(C(=O)OC(C)(C)C)CC2)c1 | inactive: -4.75% | – |
| CCN1CCN(Cc2c(O)ccc3c(C)c(-c4ccccc4)c(=O)oc23)CC1 | inactive: -18.7% | – |
| CCOC(=O)N1CCC2(CC1)OC(=O)C(C)=C2C(=O)NCc1cccc(OC)c1 | inactive: -0.541% | – |
| Cn1c(=O)n(-c2cccc(Cl)c2)c(=O)c2sc3ccccc3c21 | inactive: 8.64% | – |
| Cc1cc(NC(=O)Cn2nc(C)n3cccc3c2=O)ccc1Br | inactive: 14.3% | – |
| CCCS(=O)(=O)N1CC(=O)N(c2ccccc2C)C(C)(C(=O)NC2CCCC2)C1 (stereo not given) | inactive: 7.01% | – |
| CNC(=O)c1sc2ncccc2c1-n1cccc1 | inactive: -8.34% | – |
| Cc1ccc(NC(=O)Cn2c(=O)n(CCC(=O)NCc3ccc4c(c3)OCO4)c(=O)c3sccc32)c(C)c1 | inactive: 4.12% | – |

From PubChem BioAssay AID1508642 (National Center for Advancing Translational Sciences (NCATS), 2021)
